Assay [1] deals with FGFR2 on SNU-16 gastric cancer cell line with FGFR2 amplification (UniProt P21802). Nature of the assay: FACS on SNU-16 cells, % No. of cells with FITC+ [cont.].
Assay [2] has the same target. The experiment in a line: row 'Kd (nM) (FACS)'; FACS on SNU-16 cells.

B1: GAL-FR23 (antibody, V domains shown)
VH: QIQLVQSGPELKKPGETVKISCKASGYTFTDFGMNWMKQAPGKGFKWMGWINTSTGESTYADDFKGRFAFSLETSASTAYLQINNLKNEDMATYFCARNSYYGGSYGYWGQGTTLTVSS
VL: DIVMSQSPSSLAVSVGEKVTMK[no letters for about 80 residues]FGGGTKLEIK
A word on the EC50 (read off the curve): it is the concentration at which the effect is half-maximal. A lower EC50 (read off the curve) goes with higher potency in that assay. For orientation: Kd means the free concentration of one partner at which half of the binding sites on the other are occupied at equilibrium, for simple one-to-one binding. Lower therefore signals a tighter complex. For B1, the 50% effective concentration (EC50 (read off the curve)) in assay [1] stood at 4 µg/mL. For the same molecule, in assay [2], the Kd was 30.7 nM.

Values taken from patent publication US20230295308A1, “ANTAGONISTIC BIPARATOPIC ANTIBODIES THAT SPECIFICALLY BIND FIBROBLAST GROWTH FACTOR RECEPTOR 2 AND METHODS OF USING SAME” (The Broad Institute, Inc., priority 2020, published 2023).
